Measurements: PubChem BioAssay (Tox21)
Where “and” joins values, the source holds several entries; their conditions need not be identical. Equal entries are not always repeated. This list was built around the results that the source calls inconclusive (neither active nor inactive); the mix of calls is not that of the screen. Where the call is inconclusive, the potency comes from a doubtful curve fit. Some structures have more than one record in an assay (separate samples or runs), and their calls can disagree. Calls of active or inactive are those of the source. Calls come from the whole dose curve; as a rule, active = well fitted activation curve with a large enough effect in the repeat runs; inconclusive = weak or mixed curves, or effect the other way; inactive = no such curve, though single readings can be large or run the other way.
% is set by controls: 0 for no effect and ±100 for the full control effect; potency is the fitted concentration of half-maximal effect; tags give direction and shape of the fitted curve.

Test: qHTS assay to identify small molecule agonists of the retinoic acid receptor (RAR) signaling pathway (AID 1159553)
Settings: C3RL4 RARE luciferase reporter, agonist, 6 h; activation: at 73.3 µM (top of the series) unless noted
Outline: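 C3RL4 cells carrying a RARE luciferase reporter were plated overnight at 37 C, then exposed to compounds in DMSO for 6 hr at 37 C and 5% CO2. Luminescence was read 30 min after luciferase reagent addition at room temperature.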
With CC(O)(c1ccc(Cl)cc1)c1ccc(Cl)cc1 the activation was inconclusive: -7.6% [phenotype inactive]. With [O-][n+]1ccccc1SSc1cccc[n+]1[O-] the Potency was inconclusive: 0.082 µM [inhibitor, full curve]. In the case of Oc1c(Cl)cc(Cl)c2cccnc12, the Potency was inconclusive: 5.96 µM [inhibitor, full curve]. In the case of CCN(CC)CCOc1ccc(/C(=C(\Cl)c2ccccc2)c2ccccc2)cc1, the Potency was inconclusive: 55.6 µM [inhibitor] and inconclusive: 29.8 µM [inhibitor, partial curve]. With Cc1ccc(-n2[nH]c(C)c(N=Nc3cccc(-c4cccc(C(=O)O)c4)c3O)c2=O)cc1C the Potency was active: 29.8 µM. In the case of CN(C)c1cccc(O)c1, the Potency was active: 34.4 µM. For CC1CC(OC(=O)c2ccccc2O)CC(C)(C)C1 (stereo not drawn), the Potency was inconclusive: 12.1 µM [inhibitor, full curve]. For Cc1oncc1C(=O)Nc1ccc(C(F)(F)F)cc1, the Potency was active: 3.06 µM and active: 2.98 µM. For CCOC(=O)[C@H](CCc1ccccc1)N[C@@H](C)C(=O)N1Cc2ccccc2C[C@H]1C(=O)O, the Potency was inconclusive: 26.6 µM [inhibitor, partial curve]. For NC(N)=NC(N)=NCCc1ccccc1, the Potency was “inactive”. With CCCCCCCC/C=C\CCCCCCCC(=O)N(CCO)CCO the Potency was inconclusive: 76.6 µM [inhibitor, partial curve, poor fit]. In the case of CCc1cc(SCc2sc(-c3ccc(C(F)(F)F)cc3)nc2CN2CCN(c3ccc(OC)cc3)CC2)ccc1OCC(=O)O, the Potency was inconclusive: 68.6 µM [inhibitor, partial curve, poor fit]. With c1ccc2n[nH]nc2c1 the Potency was inconclusive: 54.5 µM [inhibitor, partial curve]. In the case of O=C(OCC1CCC2OC2C1)C1CCC2OC2C1 (stereo not drawn), the Potency was inconclusive: 0.0039 µM [activator, full curve, poor fit]. With c1ccc(-c2ccc(C(c3ccccc3)n3ccnc3)cc2)cc1 (stereo not drawn) the activation was inconclusive: 2.43% [phenotype inactive]. For S=C(NC1CCCCC1)NC1CCCCC1, the Potency was active: 9.5 µM and active: 9.69 µM. For COC(=O)C1=C(C)NC(C)=C(C(=O)OC)C1c1ccccc1[N+](=O)[O-], the Potency was active: 24.4 µM. For COc1ccc(CN2CCN(C(c3ccc(F)cc3)c3ccc(F)cc3)CC2)c(OC)c1OC, the Potency was inconclusive: 33.5 µM [inhibitor, partial curve]. With CCCCCCCCn1sc(Cl)c(Cl)c1=O the Potency was inconclusive: 4.86 µM [inhibitor, full curve]. With CCCCCCCCCCCCCC[P+](CCCC)(CCCC)CCCC the Potency was inconclusive: 9.63 µM [inhibitor, partial curve] and inconclusive: 30.6 µM [inhibitor, partial curve]. In the case of COc1cc([C@@H]2c3cc4c(cc3[C@@H](O[C@@H]3O[C@@H]5CO[C@@H](C)O[C@H]5[C@H](O)[C@H]3O)[C@H]3COC(=O)[C@H]23)OCO4)cc(OC)c1O, the Potency was inconclusive: 13.5 µM [inhibitor, full curve]. With O=c1cc(-c2ccccc2)oc2ccccc12 the Potency was active: 3.44 µM and active: 858 nM. With CCCCCCCCCCCCc1ccccc1O the Potency was inconclusive: 53.8 µM [inhibitor, partial curve] and inconclusive: 48.6 µM [inhibitor, partial curve]. For CCCCCCCCCCCC(=O)NCCCN(C)C, the Potency was inconclusive: 54.5 µM [inhibitor, partial curve]. For CC[C@]1(O)C[C@H]2CN(CCc3c([nH]c4ccccc34)[C@@](C(=O)OC)(c3cc4c(cc3OC)N(C=O)[C@H]3[C@@](O)(C(=O)OC)[C@H](OC(C)=O)[C@]5(CC)C=CCN6CC[C@]43[C@@H]65)C2)C1, the Potency was inconclusive: 0.237 µM [inhibitor, full curve]. For ClC1=C(Cl)C(Cl)(Cl)C(Cl)=C1Cl, the Potency was active: 68.6 µM. For Cc1cc(Cc2cc(C)cc(C(C)(C)C)c2O)c(O)c(C(C)(C)C)c1, the Potency was inconclusive: 19.4 µM [inhibitor] and inconclusive: 30.6 µM [inhibitor]. In the case of Cc1c2ccccc2c(C)c2c1ccc1ccccc12, the Potency was inconclusive: 8.55 µM [activator] and active: 54.5 µM.
